A number of entries come with more than one value. They are shown here; other results are not. The source may hold further records. Results that share an entry are repeated measurements in other runs, samples, wells, individuals or studies.

The experiment deals with BDF1 mice, Adenocarcinoma 755 s.c., tumor weight T/C. The experiment can be described thus: NCI In Vivo Anticancer Drug Screen. Data for tumor model Adenocarcinoma 755 (subcutaneous) in B6D2F1 (BDF1) mice. As to conditions: endpoint: mean tumor weight, higher = larger tumour. In a few lines: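 Values express treated (T) relative to vehicle-dosed control (C) animals, based on survival or tumour size measured after compound treatment of mice bearing a transplanted tumour.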

Regarding `CS(=O)(=O)OCCC(=O)NCCCNC(=O)CCOS(C)(=O)=O`, the T/C is 61 % of control and 106 % of control (dose: 14.0 mg/kg/injection, schedule: Q01DX011 (ip), vehicle: methylcellulose (MC)); 11 % of control and 100 % of control (dose: 56.0 mg/kg/injection, schedule: Q01DX011 (ip), vehicle: methylcellulose (MC)); 6 % of control and 70 % of control (dose: 112.0 mg/kg/injection, schedule: Q01DX011 (ip), vehicle: methylcellulose (MC)). Consider `c1ccc2c3c(ccc2c1)Sc1ccc2ccccc2c1N3`, for which the T/C was 53 % of control and 81 % of control (dose: 110.0 mg/kg/injection, schedule: Q01DX011 (ip), vehicle: other); 53 % of control and 85 % of control (dose: 220.0 mg/kg/injection, schedule: Q01DX011 (ip), vehicle: other).

For the compound `O=S(=O)(F)c1nc(Cl)c2[nH]cnc2n1`, where the note is “dose: 25.0 mg/kg/injection, schedule: Q01DX011 (ip), vehicle: methylcellulose (MC)”, the T/C was 25 % of control and 113 % of control. Regarding `Nc1nc(SCC(=O)c2ccccc2)c2[nH]cnc2n1`, the T/C runs as follows: (dose: 3.75 mg/kg/injection, schedule: Q01DX011 (ip), vehicle: saline) 16 % of control and 53 % of control; (dose: 7.5 mg/kg/injection, schedule: Q01DX011 (ip), vehicle: saline) 9 % of control and 41 % of control.

For `O=c1[nH]cc(F)c(=O)[nH]1`, the T/C (dose: 13.5 mg/kg/injection, schedule: Q01DX011 (ip), vehicle: carboxymethylcellulose (CMC)) was 69 % of control and 112 % of control; the T/C (dose: 15.5 mg/kg/injection, schedule: Q01DX011 (ip), vehicle: carboxymethylcellulose (CMC)) is 44 % of control and 73 % of control. `CC(=O)c1cc(C)[nH]c1C`: the T/C (dose: 29.0 mg/kg/injection, schedule: Q01DX011 (ip), vehicle: methylcellulose (MC)) was 45 % of control and 73 % of control; the T/C (dose: 57.5 mg/kg/injection, schedule: Q01DX011 (ip), vehicle: methylcellulose (MC)) was 50 % of control and 84 % of control. In the case of `CCCCN(C)N=Nc1ccc(S(N)(=O)=O)cc1`, under “dose: 16.0 mg/kg/injection, schedule: Q01DX011 (ip), vehicle: carboxymethylcellulose (CMC)”, the T/C was 30 % of control and 81 % of control.

On to `CC(=O)OCC(=O)[C@@]1(O)CC[C@H]2[C@@H]3CCC4=CC(=O)C=C[C@]4(C)[C@H]3[C@@H](O)C[C@@]21C`, for which the T/C (dose: 10.0 mg/kg/injection, schedule: Q01DX011 (sc), vehicle: steriod suspending solution) was 34 % of control and 85 % of control.

Take `OCC1OC(n2cnc3c(=S)nc[nH]c32)C(O)C1O` (stereo not given): for the setting “dose: 1.87 mg/kg/injection, schedule: Q01DX011 (ip), vehicle: carboxymethylcellulose (CMC)”, the T/C is 27 % of control and 58 % of control. `C=CC(CN1CC1)OC(C)=O` (stereo not given): the T/C (dose: 3.25 mg/kg/injection, schedule: Q01DX011 (ip), vehicle: saline) was 1 % of control and 30 % of control; the T/C (dose: 3.38 mg/kg/injection, schedule: Q01DX011 (ip), vehicle: carboxymethylcellulose (CMC)) was 24 % of control and 69 % of control; the T/C (dose: 4.95 mg/kg/injection, schedule: Q01DX011 (ip), vehicle: carboxymethylcellulose (CMC)) is 11 % of control, 24 % of control, 45 % of control.

With `COc1ccc2c(c1)/C(=C/CCN(C)C)c1ccccc1S2`, the T/C (dose: 4.0 mg/kg/injection, schedule: Q01DX011 (ip), vehicle: methylcellulose (MC)) is 50 % of control and 79 % of control.

For `N#CCCn1cnc2c(Cl)ncnc21`, the T/C (dose: 200.0 mg/kg/injection, schedule: Q01DX011 (ip), vehicle: other) was 53 % of control and 91 % of control. Consider `CCN(CC)CCOc1ccc(/C=N/Nc2nc3c(c(=O)n(C)c(=O)n3C)n2C)cc1`, for which the T/C (dose: 120.0 mg/kg/injection, schedule: Q01DX011 (ip), vehicle: carboxymethylcellulose (CMC)) was 84 % of control and 121 % of control. In the case of `CC1CN1P(=O)(N1CCCCC1)N1CC1C` (stereo not given), the T/C reads like this: (dose: 12.0 mg/kg/injection, schedule: Q01DX011 (ip), vehicle: saline) 18 % of control, 59 % of control, 88 % of control; (dose: 24.0 mg/kg/injection, schedule: Q01DX011 (ip), vehicle: saline) 3 % of control, 10 % of control, 42 % of control. Take `CCn1cnc2c(=S)nc[nH]c21`: the T/C (dose: 1.5 mg/kg/injection, schedule: Q01DX011 (ip), vehicle: carboxymethylcellulose (CMC)) is 24 % of control and 66 % of control.

For the compound `CN(C)C1C(=O)C(C(N)=O)=C(O)C2(O)C(=O)C3=C(O)c4c(O)cccc4C(C)(O)C3C(O)C12` (stereo not given), the T/C was 4 % of control and 35 % of control (dose: 156.0 mg/kg/injection, schedule: Q01DX011 (ip), vehicle: carboxymethylcellulose (CMC)); 33 % of control, 39 % of control, 74 % of control (dose: 158.9 mg/kg/injection, schedule: Q01DX011 (ip), vehicle: carboxymethylcellulose (CMC)). As for `Cc1cc2nc3c(=O)[nH]c(=O)nc-3n(CC(O)C(O)C(O)C(O)CO)c2cc1C` (stereo not given), the T/C by setting is: (dose: 29.0 mg/kg/injection, schedule: Q01DX011 (ip), vehicle: carboxymethylcellulose (CMC)) 68 % of control, 103 % of control, 120 % of control; (dose: 44.0 mg/kg/injection, schedule: Q01DX011 (ip), vehicle: carboxymethylcellulose (CMC)) 15 % of control, 67 % of control, 93 % of control; (dose: 66.0 mg/kg/injection, schedule: Q01DX011 (ip), vehicle: carboxymethylcellulose (CMC)) 24 % of control, 76 % of control, 78 % of control; (dose: 100.0 mg/kg/injection, schedule: Q01DX011 (ip), vehicle: carboxymethylcellulose (CMC)) 22 % of control, 40 % of control, 66 % of control. As for `C[C@@H]1CN(C(=O)CCOS(C)(=O)=O)[C@@H](C)CN1C(=O)CCOS(C)(=O)=O`, under “dose: 18.8 mg/kg/injection, schedule: Q01DX011 (ip), vehicle: carboxymethylcellulose (CMC)”, the T/C is 49 % of control and 76 % of control. As to `CN(C)/N=N/c1nc[nH]c1C(N)=O`, the T/C runs as follows: (dose: 40.0 mg/kg/injection, schedule: Q01DX011 (ip), vehicle: carboxymethylcellulose (CMC)) 31 % of control and 67 % of control; (dose: 80.0 mg/kg/injection, schedule: Q01DX011 (ip), vehicle: carboxymethylcellulose (CMC)) 42 % of control and 68 % of control; (dose: 125.0 mg/kg/injection, schedule: Q01DX011 (ip), vehicle: carboxymethylcellulose (CMC)) 14 % of control and 44 % of control; (dose: 160.0 mg/kg/injection, schedule: Q01DX011 (ip), vehicle: carboxymethylcellulose (CMC)) 5 % of control and 36 % of control. As for `CCC1OCC(C(Cl)CCl)O1` (stereo not given), the T/C (dose: 56.25 mg/kg/injection, schedule: Q01DX011 (ip), vehicle: methylcellulose (MC)) is 57 % of control and 102 % of control; the T/C (dose: 112.5 mg/kg/injection, schedule: Q01DX011 (ip), vehicle: methylcellulose (MC)) was 65 % of control and 91 % of control; the T/C (dose: 225.0 mg/kg/injection, schedule: Q01DX011 (ip), vehicle: methylcellulose (MC)) was 45 % of control and 89 % of control.

`CO[C@@]12[C@H](COC(N)=O)C3=C(C(=O)C(C)=C(N)C3=O)N1C[C@@H]1N[C@@H]12`: the T/C is 70 % of control, 74 % of control, 102 % of control (dose: 0.4 mg/kg/injection, schedule: Q01DX011 (ip), vehicle: carboxymethylcellulose (CMC)); 18 % of control, 47 % of control, 67 % of control (dose: 0.8 mg/kg/injection, schedule: Q01DX011 (ip), vehicle: carboxymethylcellulose (CMC)); 62 % of control and 88 % of control (dose: 225.0 micrograms/kg/injection, schedule: Q01DX011 (ip), vehicle: carboxymethylcellulose (CMC)). Regarding `S=c1nc[nH]c2nc[nH]c12`, the T/C (dose: 0.05 mg/kg/injection, schedule: Q01DX011 (ip), vehicle: carboxymethylcellulose (CMC)) was 100 % of control and 150 % of control. In the case of `Nc1nc(SCc2ccccc2)c2[nH]cnc2n1`, under “dose: 14.0 mg/kg/injection, schedule: Q01DX001 (ip), vehicle: carboxymethylcellulose (CMC)”, the T/C is 17 % of control, 35 % of control, 47 % of control.

`CC(C)n1cnc2c(Cl)ncnc21`: the T/C (dose: 31.0 mg/kg/injection, schedule: Q01DX011 (ip), vehicle: carboxymethylcellulose (CMC)) is recorded as 10 % of control, 21 % of control, 78 % of control. Regarding `COc1ccc(C[C@H](N)C(=O)NC2C(CO)OC(n3cnc4c(N(C)C)ncnc43)C2O)cc1` (stereo not given in full), the T/C is 16 % of control, 30 % of control, 59 % of control (dose: 39.75 mg/kg/injection, schedule: Q01DX011 (ip), vehicle: carboxymethylcellulose (CMC)) and 3 % of control, 16 % of control, 44 % of control (dose: 53.0 mg/kg/injection, schedule: Q01DX011 (ip), vehicle: carboxymethylcellulose (CMC)). With `CN1CCC(CN2c3ccccc3Sc3ccccc32)CC1`, the T/C reads like this: (dose: 7.0 mg/kg/injection, schedule: Q01DX011 (ip), vehicle: methylcellulose (MC)) 66 % of control and 96 % of control; (dose: 15.0 mg/kg/injection, schedule: Q01DX011 (ip), vehicle: methylcellulose (MC)) 57 % of control and 111 % of control; (dose: 30.0 mg/kg/injection, schedule: Q01DX011 (ip), vehicle: methylcellulose (MC)) 27 % of control, 52 % of control, 83 % of control; (dose: 60.0 mg/kg/injection, schedule: Q01DX011 (ip), vehicle: methylcellulose (MC)) 27 % of control, 36 % of control, 66 % of control.

The values above are taken from PubChem BioAssay AID180 (DTP/NCI, 2004).
